Experiment [1] relates to RAW-Dual. Briefly: IRF Lucia reporter activity, fold change vs agonist alone; cytotoxicity flag (confluency mask): not cytotoxic; higher = enhanced IRF activity. The essentials:
(§1)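 Supernatant from RAW-Dual macrophages was read after 20 hours for IRF by QuantiLuc luminescence and for NF-κB by QuantiBlue absorbance at 620 nm. The cells (50,000 cells/well in DMEM, 384-well plates, 37 °C, 5% CO2) had received 50 nL of library stock by pin tool and, 1 h later, a PRR agonist. Reporter activity is expressed relative to agonist-alone wells as fold change, and wells were flagged cytotoxic if IncuCyte confluency was under 70% of agonist controls in both mask sets.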

For experiment [2], the system named is RAW-Dual. As to the kind of experiment: IRF Lucia reporter activity, fold change vs agonist alone; higher = enhanced IRF activity. The conditions noted are these: library stock concentration (final ~1000-fold dilution): 10 mM; cytotoxicity flag (confluency mask): not cytotoxic; agonist: MPLA (TLR4) […]. The essentials: as §1
For experiment [3], the system named is RAW-Dual. Briefly: IRF Lucia reporter activity, fold change vs agonist alone; cytotoxicity flag (confluency mask): cytotoxic (confluency <70% of control); higher = enhanced IRF activity. The essentials: as §1
[4] abbreviates: agonist: 3'3'-cGAMP (STING) 10 ug/mL.

Where “and” joins values, the source holds several entries; their conditions need not be identical. Equal values may be shown once. Over roughly 2,900 compounds, “IRF Lucia reporter activity, fold change vs agonist alone” has its median near 0.9; the highest 2% begin near 2.8. This is one part of the list.

In the case of `COc1cc(N)c(Cl)cc1C(=O)NC1CCN(Cc2ccccc2)CC1` (library stock concentration (final ~1000-fold dilution): 10 mM), the results for the “IRF Lucia reporter activity” value in the experiment with RAW-Dual [1] (setting [4]) and in the experiment with RAW-Dual [1] (agonist: LPS (TLR4) 0.1 ug/mL) were 0.746 and 0.908, respectively.
For the compound `COc1cc(N)c(Cl)cc1C(=O)NC1CCN(Cc2ccccc2)CC1`, the “IRF Lucia reporter activity” value in the experiment with RAW-Dual [2] stood at 1.07.
In the case of `O=S(=O)(NCCN1CCNCC1)c1ccc(NC2CCCCC2)c(NCc2ccccc2)c1` (library stock concentration (final ~1000-fold dilution): 10 mM), the “IRF Lucia reporter activity” value was found to be 0.666 in the experiment with RAW-Dual [3] (setting [4]) and 1.22 with RAW-Dual [3] (agonist: LPS (TLR4) 0.1 ug/mL).
As to `O=C(Nc1cc(Cl)cc2c1[nH]c1cnccc12)c1cccnc1` (library stock concentration (final ~1000-fold dilution): 10 mM), the “IRF Lucia reporter activity” value with RAW-Dual [1] (setting [4]) was 0.176 and 0.235; with RAW-Dual [1] (agonist: LPS (TLR4) 0.1 ug/mL) it was 0.283 and 0.265.
On to `C[C@@H]1O[C@@H](O[C@@H]2[C@@H](O)[C@H](OCCc3ccc(O)c(O)c3)O[C@H](CO[C@@H]3O[C@H](CO)[C@@H](O)[C@H](O)[C@H]3O)[C@H]2OC(=O)/C=C/c2ccc(O)c(O)c2)[C@H](O)[C@H](O)[C@H]1O` (library stock concentration (final ~1000-fold dilution): 10 mM), for which the “IRF Lucia reporter activity” value in the experiment on RAW-Dual [1] (setting [4]) stood at 1.04; with RAW-Dual [1] (agonist: LPS (TLR4) 0.1 ug/mL), 1.19.
On the same counts, the results for `Cc1nc(Nc2ccc(F)cc2)nc(N2CCc3ccccc3C2C)c1C.Cl` (stereo not drawn) (library stock concentration (final ~1000-fold dilution): 10 mM) are 0.465 and 1.25.
Regarding `Cc1nc(Nc2ccc(F)cc2)nc(N2CCc3ccccc3C2C)c1C.Cl` (stereo not drawn), the “IRF Lucia reporter activity” value with RAW-Dual [2] is 1.59.
As to `CN1CCN(c2ccc(C(=O)Nc3n[nH]c4ccc(Cc5cc(F)cc(F)c5)cc34)c(NC3CCOCC3)c2)CC1` (library stock concentration (final ~1000-fold dilution): 10 mM), the “IRF Lucia reporter activity” value in the experiment with RAW-Dual [3] (setting [4]) stood at 0.032; with RAW-Dual [3] (agonist: LPS (TLR4) 0.1 ug/mL) it was 0.0438.
Regarding `CN1C(=N)NC(C)(c2cc(NC(=O)c3ccc(F)cn3)ccc2F)CS1(=O)=O.O=C(O)C(F)(F)F` (stereo not drawn) (library stock concentration (final ~1000-fold dilution): 10 mM), the “IRF Lucia reporter activity” value was 0.974 in the experiment on RAW-Dual [1] (setting [4]) and 0.998 in the experiment with RAW-Dual [1] (agonist: LPS (TLR4) 0.1 ug/mL).
Turning to `CS(=O)(=O)c1ccc(Oc2cc(F)cc(C#N)c2)c2c1C(O)C(F)(F)C2` (stereo not drawn) (library stock concentration (final ~1000-fold dilution): 10 mM), the “IRF Lucia reporter activity” value in the experiment on RAW-Dual [1] (setting [4]) is 0.969; in the experiment with RAW-Dual [1] (agonist: LPS (TLR4) 0.1 ug/mL), 1.08.
As for `COc1ccc2[nH]c(S(=O)Cc3ncc(C)c(OC)c3C)nc2n1` (stereo not drawn), the “IRF Lucia reporter activity” value in the experiment on RAW-Dual [2] turned out to be 1.16.
Regarding `COc1ccc2[nH]c(S(=O)Cc3ncc(C)c(OC)c3C)nc2n1` (stereo not drawn) (library stock concentration (final ~1000-fold dilution): 10 mM), the “IRF Lucia reporter activity” value in the experiment on RAW-Dual [1] (setting [4]) was 1.07; with RAW-Dual [1] (agonist: LPS (TLR4) 0.1 ug/mL), 1.22.
On the same counts, the results for `O=C(Nc1cccc(Cl)c1)Nc1ncc(CCNc2ncnc3ccsc23)s1` (library stock concentration (final ~1000-fold dilution): 10 mM) are 0.242 and 0.383.
As for `C=C(C)C1CCC2(C(=O)OC3OC(COC4OC(CO)C(OC5OC(C)C(O)C(O)C5O)C(O)C4O)C(O)C(O)C3O)CCC3(C)C(CCC4C5(C)CCC(OC6OCC(O)C(O)C6OC6OC(C)C(O)C(O)C6O)C(C)(CO)C5CCC43C)C12` (stereo not drawn) (library stock concentration (final ~1000-fold dilution): 2 mM), the “IRF Lucia reporter activity” value in the experiment on RAW-Dual [1] (setting [4]) stood at 0.987; in the experiment with RAW-Dual [1] (agonist: LPS (TLR4) 0.1 ug/mL) it was 1.05.
`Nc1ncnc2c1c(-c1cccc(OCc3ccccc3)c1)cn2C1CC(CN2CCCC2)C1` (stereo not drawn) (library stock concentration (final ~1000-fold dilution): 10 mM): the “IRF Lucia reporter activity” value stood at 0.0506 with RAW-Dual [1] (setting [4]) and 0.0306 in the experiment with RAW-Dual [1] (agonist: LPS (TLR4) 0.1 ug/mL).
In the case of `Nc1ncnc2c1c(-c1cccc(OCc3ccccc3)c1)cn2C1CC(CN2CCCC2)C1` (stereo not drawn), in the experiment on RAW-Dual [2], the “IRF Lucia reporter activity” value amounted to 0.0632.
Take `CCCC(NC(=O)C1C2CCCC2CN1C(=O)C(NC(=O)C(NC(=O)c1cnccn1)C1CCCCC1)C(C)(C)C)C(=O)C(=O)NC1CC1` (stereo not drawn) (library stock concentration (final ~1000-fold dilution): 10 mM): the “IRF Lucia reporter activity” value in the experiment on RAW-Dual [1] (setting [4]) was determined as 1.07; in the experiment on RAW-Dual [1] (agonist: LPS (TLR4) 0.1 ug/mL), 1.05.
In the case of `CCCC(NC(=O)C1C2CCCC2CN1C(=O)C(NC(=O)C(NC(=O)c1cnccn1)C1CCCCC1)C(C)(C)C)C(=O)C(=O)NC1CC1` (stereo not drawn), in the experiment with RAW-Dual [2], the “IRF Lucia reporter activity” value stood at 1.07.
For the compound `COc1cc2ncnc(Nc3cc(Br)c(O)c(Br)c3)c2cc1OC` (library stock concentration (final ~1000-fold dilution): 10 mM), the results for the “IRF Lucia reporter activity” value in the experiment with RAW-Dual [1] (setting [4]) and with RAW-Dual [1] (agonist: LPS (TLR4) 0.1 ug/mL) were 0.594 and 0.688, respectively.
Regarding `COc1cc2ncnc(Nc3cc(Br)c(O)c(Br)c3)c2cc1OC`, in the experiment on RAW-Dual [2], the “IRF Lucia reporter activity” value came to 0.707.
For `O=S(=O)(N=Cc1c(O)ccc2ccccc12)c1cccs1` (library stock concentration (final ~1000-fold dilution): 10 mM), the “IRF Lucia reporter activity” value with RAW-Dual [1] (setting [4]) turned out to be 0.709; in the experiment with RAW-Dual [1] (agonist: LPS (TLR4) 0.1 ug/mL), 0.968.
On to `Fc1ccc(CNc2ncnc3ccc(F)cc23)cc1` (library stock concentration (final ~1000-fold dilution): 10 mM), for which the entries for the “IRF Lucia reporter activity” value in the experiment on RAW-Dual [1] (setting [4]) and in the experiment on RAW-Dual [1] (agonist: LPS (TLR4) 0.1 ug/mL) were 0.209 and 0.415, respectively.

(Values after the supplement of paper PMC10037445.)
